Assay results published in PubChem BioAssay AID1865 (National Center for Advancing Translational Sciences (NCATS), 2009).
Out of some 280,000 compounds screened, about 540 (0.19%) were called active. Inconclusive results, whose numbers are uncertain, are shown with a selection of clear calls. Calls follow the shape of the dose curve; as a rule, active = well fitted activation curve with a large enough effect; inconclusive = small, poorly fitted or top-dose-only effect; inactive = flat fitted curve, though single readings scatter. A potency beside an inconclusive call is a rough fit, not a confirmed value.

test: Quantitative High-Throughput Screen for Regulators of Epigenetic Control; settings: murine LDR cells, GFP reporter derepression, 30 h; GFP activation: at 53.9 µM (top of the series); also: nearly all actives have a fitted effect of over 60% in size; as to GFP activation: % of control where 0% means no effect
Outline: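 Murine LDR cells carrying a silenced, genomically integrated CMV-driven GFP reporter were exposed to compound for 30 hours at 37 C. After PBS washes, GFP-positive cells (20–120 um objects) were counted by laser-scanning microplate cytometry.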
Potency is read from the fitted curve at half-maximal effect; tags tell the direction and shape of the fitted curve.

Row | SMILES | Potency | GFP activation
1 | Cc1cc(NCCCn2ccnc2)n2nc(C)c(-c3ccc(Cl)cc3)c2n1 | inconclusive: 7.94 µM [activator, partial curve, poor fit] | 
2 | N=c1n(CC(=O)c2ccc([N+](=O)[O-])cc2)c2ccccc2n1Cc1ccccc1 | active: 22.4 µM | 
3 | CCOc1ccc2nc(Cl)c(C3CC(c4ccc(OC)cc4)=NN3S(C)(=O)=O)cc2c1 (stereo not drawn) | inconclusive: 22.4 µM [activator, single point] | 
4 | CCOCCCNCc1ccc(OCc2ccccc2C)c(OC)c1 | inconclusive: 35.5 µM [activator, single point] | 
5 | CCOC(=O)/C=C1\Nc2ccccc2OC1=O | inconclusive: 35.5 µM [activator, single point] | 
6 | Cc1ccccc1CC1(CO)CCCN(Cc2ccc(C#CC(C)(C)O)cc2)C1 (stereo not drawn) | inconclusive: 35.5 µM [activator, single point] | 
7 | Cc1ccc(-c2csc3ncn(-n4c(C)ccc4C)c(=O)c23)o1 | inconclusive: 35.5 µM [activator, single point] | 
8 | Cc1cc(NC(=S)NC(=O)/C=C/c2ccc(S(=O)(=O)N3CCOCC3)cc2)ccc1Br |  | inactive: 0.935%
9 | Cc1c(O)ccc(/C(Cc2ccc3ccccc3n2)=N\N)c1O | inconclusive: 35.5 µM [activator, single point] | 
10 | COc1cccc(-c2cc(C(F)(F)F)c3c(N)c(C#N)sc3n2)c1 | inconclusive: 25.1 µM [activator, single point] | 
11 | COc1ccc(N2Cc3cccc(C(=O)Nc4cc(C)cc(C)c4)c3C2=O)cc1 |  | inactive: 1.94%
12 | C=CCN(CC=C)C(=S)NC(=O)c1ccc([N+](=O)[O-])cc1 | inconclusive: 25.1 µM [activator, single point] | 
13 | Nc1ncnc(Sc2ncccn2)c1[N+](=O)[O-] | inconclusive: 6.31 µM [activator, single point] | 
14 | Cc1ccc2nc(-c3ccncc3)cc(C(=O)Nc3ccc(OC(F)F)cc3)c2c1 | inconclusive: 14.1 µM [activator, single point] | 
15 | O=C(CCSc1nc2ccccc2s1)N/N=C/c1c(O)ccc2ccccc12 | inconclusive: 17.8 µM [activator, single point] | 
16 | COc1cc(-n2c(N)c(C(=O)NCc3ccco3)c3nc4ccccc4nc32)cc(OC)c1OC | inconclusive: 35.5 µM [activator, single point] | 
17 | COC(=O)C1=C(O)/C(=C\c2ccc(CNC(=O)C(=O)Nc3ccc(C)cc3)o2)N=C1C | inconclusive: 5.01 µM [activator, single point] | 
18 | COc1ccc(NC(=O)CCn2c(=O)c3cccn3c3cccnc32)cc1Cl | inconclusive: 28.2 µM [activator, single point] | 
19 | O=C(NCc1ccc2c(c1)CCN2C(=O)c1ccccc1)c1ccccc1 |  | inactive: -0.465%
20 | COc1ccc(C(=O)c2sc3nc(C)cc(-c4cccs4)c3c2N)cc1OC | inconclusive: 28.2 µM [activator, single point] | 
21 | CCOC(=O)c1ccc(N/C=C2\CCCCC2=O)cc1 | inconclusive: 35.5 µM [activator, single point] | 
22 | Cc1ccc(-c2nc3ncccn3c2Nc2ccc3c(c2)OCCO3)o1 |  | inactive: -2.94%
23 | Cc1ccc2[nH]c(C)cc(=S)c2c1 |  | inactive: 1.12%

Row | SMILES | Potency | GFP activation
24 | CSc1ncc(CN2CCc3c([nH]c4ccccc34)C2c2cccc(O)c2)cn1 (stereo not drawn) | inconclusive: 31.6 µM [activator, single point] | 
25 | CCN1CCN(c2nc3ccccc3nc2C(C#N)C(=O)OCc2ccccc2)CC1 (stereo not drawn) | inconclusive: 6.31 µM [activator, single point] | 
26 | Cc1ccc2c(c1)c(=O)c1ccccc1n2CCCC(=O)Nc1cc(Cl)ccc1C | inconclusive: 35.5 µM [activator, single point] | 
27 | O=C(CSc1nnc(-c2ccccn2)n1Cc1ccco1)c1ccc(Cl)cc1 |  | inactive: -1.58%
28 | COc1ccc(Nc2nnc(SCC(=O)c3cc4ccccc4o3)s2)cc1 | inconclusive: 14.1 µM [activator, single point] | 
29 | O=C(COC(=O)c1cc[n+]([O-])cc1)NCCc1ccc(Cl)cc1Cl | inconclusive: 35.5 µM [activator, single point] | 
30 | COc1ccc(CN2CN(C3CCCC3)CSC2=S)cc1 | inconclusive: 35.5 µM [activator, single point] | 
31 | CCOC(=O)c1c(-c2ccc(C)o2)csc1NC(=O)COC(=O)c1cccs1 | inconclusive: 25.1 µM [activator, single point] | 
32 | CC(C)(C)C1CCC2(CC1)CC(=O)c1ccccc1O2 (stereo not drawn) | inconclusive: 22.4 µM [activator, single point] | 
33 | O=C(COc1ccc(Br)cc1Cl)Nc1ncn[nH]1 | inconclusive: 35.5 µM [activator, single point] | 
34 | COc1ccc(CCNc2nc3ccccc3n3nnnc23)cc1OC | inconclusive: 35.5 µM [activator, single point] | 
35 | c1ccc(-c2nc(N3CCCCCC3)nc(-n3ccnc3)n2)cc1 |  | inactive: -0.405%
36 | CCCn1c(-c2cccs2)nc2c1c(=O)[nH]c(=O)n2Cc1ccccc1 | inconclusive: 15.8 µM [activator, single point] | 
37 | CCOC(=O)/C(C#N)=C1/C=Nc2ccccc2N1 |  | inactive: 0%
38 | Cc1ccccc1-c1noc(-c2ccc(NC3CCCC3)c([N+](=O)[O-])c2)n1 | inconclusive: 35.5 µM [activator, single point] | 
39 | COC(=O)N[C@@H](CCc1ccccc1)/C(C(=O)OC)=C(\C)NCc1ccccc1 |  | inactive: -1.14%
40 | CCOC(=O)CSc1nc(-c2ccc(OC)cc2)cc(C(F)(F)F)c1C#N | inconclusive: 35.5 µM [activator, single point] | 
41 | O=C(/C=C/c1cccs1)Nc1scc(-c2ccccc2)c1C(=O)O |  | inactive: 0.284%
42 | Cc1cc(C)c(NC(=O)Nc2sc3nc4n(c(=O)c3c2C)CCC(C)CC4)c(C)c1 (stereo not drawn) | inconclusive: 35.5 µM [activator, single point] | 
43 | BrC(=C\c1ccccc1)/C=N/n1cnnc1 | inconclusive: 4.47 µM [activator, single point] | 
44 | O=C(/C=C/Nc1ccccc1Oc1ccccc1)c1ccco1 | inconclusive: 28.2 µM [activator, single point] | 
45 | O=C1NCC(O)=C1C=Nc1ccccc1O | inconclusive: 31.6 µM [activator, single point] | 
46 | Cc1ccc(/C=C/C(=O)N2CC(C)CC(C)C2)o1 (stereo not drawn) | inconclusive: 14.1 µM [activator, single point] | 

Row | SMILES | Potency | GFP activation
47 | COCC(C)NC(=O)C1=CC(c2ccc3c(c2)OCO3)=NS(=O)(=O)N1C (stereo not drawn) |  | inactive: -4.24%
48 | Cc1ccc(CNC(=O)c2sc3nc4n(c(=O)c3c2C)CCCC4)cc1 | inconclusive: 25.1 µM [activator, single point] | 
49 | CC(=O)NC1=NN(C(C)=O)C(C)(c2ccccn2)S1 (stereo not drawn) | inconclusive: 20 µM [activator, single point] | 
50 | COc1ccc(-c2nc3c(c(SCC(=O)N4CCOCC4)n2)COC(C)(C)C3)cc1 | inconclusive: 15.8 µM [activator, single point] | 
51 | CC1(C)COC(c2ccc(F)c([N+](=O)[O-])c2)=N1 | inconclusive: 17.8 µM [activator, single point] | 
52 | COc1cccc(-c2ccnc3c(-c4ccc(F)cc4)c(C)nn23)c1 |  | inactive: 10.5%
53 | CSc1ncc2c(n1)-c1ccccc1N(Cc1ccc(F)cc1)S2(=O)=O | inconclusive: 25.1 µM [activator, single point] | 
54 | Cc1csc2nc(COc3ccc(NC(=O)COc4ccccc4F)cc3)cc(=O)n12 | inconclusive: 15.8 µM [activator, partial curve] | 
55 | Cc1ccc(/C=[N+](\[O-])c2ccc(N(C)C)cc2)c2nsnc12 | inconclusive: 3.98 µM [activator, partial curve] | 
56 | O=C(NCCc1nc2ccccc2n1Cc1c(F)cccc1Cl)c1ccco1 | inconclusive: 17.8 µM [activator, partial curve] | 
57 | CC1C(c2ccccc2)N(C)C(c2ccccc2)C(C)C1(O)C#Cc1ccccc1 (stereo not drawn) |  | inactive: 4.21%
58 | CC(=O)c1sc(NC(=O)c2c(-c3ccccc3)c(-c3ccccc3)nn(C)c2=O)nc1C |  | inactive: -2.44%
59 | Cc1cccc2sc(NNC(=O)c3cc(-c4cccs4)nc4ccccc34)nc12 | inconclusive: 35.5 µM [activator, single point] | 
60 | Cc1ccc(-c2nc3ccccc3o2)cc1NC(=O)Cc1cccs1 | inconclusive: 3.98 µM [activator, single point] | 
61 | COc1ccc(N2CCN(C(=O)C3CCN(S(=O)(=O)c4cccc5nonc45)CC3)CC2)cc1 |  | inactive: 1.3%
62 | Cc1cc(NC(=O)CSc2nnc(-c3cccnc3)n2Cc2ccccc2)no1 |  | inactive: -4.76%
63 | CN1/C(=C\C=C2\N=C(c3ccc(F)cc3)OC2=O)C(C)(C)c2ccccc21 | inconclusive: 35.5 µM [activator, single point] | 
64 | O=C(Oc1c(Cl)cc(Cl)c2cccnc12)c1ccco1 | inconclusive: 35.5 µM [activator, single point] | 
65 | C/C(CC1CC2=C(CC1(C)C)C(C)(C)CCC2)=N\NC(N)=S (stereo not drawn) | inconclusive: 31.6 µM [activator, single point] | 
66 | Fc1ccc(NC(=S)Nc2nccs2)cc1 |  | inactive: 14.8%
67 | COC(=O)[C@@]1(Cc2ccc(F)cc2)[C@H]2c3cc(C(=O)N(C)C)n(Cc4ccc(C)o4)c3C[C@H]2CN1C(=O)c1ccccc1 |  | inactive: 17.5%
68 | Cc1c(NC(=O)c2cc(-c3ccccc3O)on2)c(=O)n(-c2ccccc2)n1C | inconclusive: 35.5 µM [activator, single point] | 
